Source: the supplement of paper PMC7125110
± gives the standard error. This sample is rich in variants without activity.

B1: glmS ribozyme (parent)
chain: AUAAAAGCGCCAGAACUACAGAAAUGUAGUUGACGAGGAGGAGGUUUAUCGAAUUUUCGGCGGAUGCCUCCAAA

What was measured:
Conditions in all cases: with glucosamine-6-phosphate
glucosamine-6-phosphate [1] = variants of: B1; experiment: self-cleavage kobs at 640 uM GlcN6P; higher = faster cleavage; RNA array
Outline: (§1)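 Barcoded ribozyme variants on sequenced MiSeq chips were transcribed in situ by E. coli RNA polymerase and followed at 37 °C through a hybridised Cy3 probe. Glucosamine-6-phosphate at 40 μM to 10 mM in HEPES/KCl/Mg(OAc)2 buffer was flowed in, and tiles were imaged over ~14 h. Signals were normalised to baseline and to non-cleaving reference variants, and per-tile medians were fit to one- or two-exponential decays to give kobs. Weighted Michaelis–Menten fits across concentrations gave kcat and KM.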

glucosamine-6-phosphate [2] = variants of: B1; experiment: self-cleavage kobs at 2500 uM GlcN6P; higher = faster cleavage; RNA array
Outline: as §1

glucosamine-6-phosphate [3] = variants of: B1; experiment: self-cleavage kobs at 160 uM GlcN6P; higher = faster cleavage; RNA array
Outline: as §1

glucosamine-6-phosphate [4] = variants of: B1; experiment: self-cleavage kobs at 10000 uM GlcN6P; higher = faster cleavage; RNA array
Outline: as §1

Variant | self-cleavage kobs at 640 uM GlcN6P (glucosamine-6-phosphate [1]) [s⁻¹] | self-cleavage kobs at 2500 uM GlcN6P (glucosamine-6-phosphate [2]) [s⁻¹] | self-cleavage kobs at 160 uM GlcN6P (glucosamine-6-phosphate [3]) [s⁻¹] | self-cleavage kobs at 10000 uM GlcN6P (glucosamine-6-phosphate [4]) [s⁻¹]
G13A G40U U65C | < 1e-05 | – | – | –
A15G C34A A64C | < 1e-05 | – | – | –
C16A U69G | 7.48e-05 ± 1.5e-05 | – | – | –
A14G U30G G32A G44C C58U | < 1e-05 | < 1e-05 | – | –
G13A C34A C58U | < 1e-05 | – | < 1e-05 | –
A15U C34A | < 1e-05 | < 1e-05 | < 1e-05 | < 1e-05
A14G G38U G44U | < 1e-05 | – | – | –
A14C C16G | 4.86e-05 ± 1.2e-05 | 8.11e-05 ± 8.9e-06 | – | 7.9e-05 ± 6.9e-06
C16A G62A U65A | < 1e-05 | < 1e-05 | – | –
A15G A48U C70G | 5.16e-05 ± 1.9e-05 | 6.9e-05 ± 1.6e-05 | – | –
A15U G35C A53U | < 1e-05 | < 1e-05 | – | –
G13C A14C C61A C67U | 4.47e-05 ± 1.8e-05 | – | – | –
A14C G32C G35U U57A | < 1e-05 | – | < 1e-05 | –
C16G A39G G51U U55C G59C | < 1e-05 | – | – | –
A15G A53C C68U | 4.28e-05 ± 2e-05 | 0.000114 ± 3.9e-05 | – | –
A14G U31C U56A | 0.00939 ± 0.0013 | 0.0277 ± 0.0066 | 0.0016 ± 0.00031 | –
A15G G35A G40A G44U C50U C68U | < 1e-05 | – | – | –
C16A G40C A64C C67U | < 1e-05 | < 1e-05 | – | –
G13C A42C G59U | < 1e-05 | – | – | –
G13C G41U C71U | < 1e-05 | – | – | –

Variant | self-cleavage kobs at 640 uM GlcN6P (glucosamine-6-phosphate [1]) [s⁻¹] | self-cleavage kobs at 2500 uM GlcN6P (glucosamine-6-phosphate [2]) [s⁻¹] | self-cleavage kobs at 160 uM GlcN6P (glucosamine-6-phosphate [3]) [s⁻¹] | self-cleavage kobs at 10000 uM GlcN6P (glucosamine-6-phosphate [4]) [s⁻¹]
A14U A15G G37A | 0.000119 ± 2.8e-05 | – | – | –
A14U A36G U47A | < 1e-05 | < 1e-05 | – | –
G13U A14U A48U | < 1e-05 | – | – | –
A14C A15G A36G U45A U49A U56C | < 1e-05 | < 1e-05 | – | –
A14U G26A A33G G59A | < 1e-05 | – | – | –
G13C G29U | 3.22e-05 ± 1.3e-05 | 6.58e-05 ± 8.4e-06 | – | 0.000125 ± 1.6e-05
A14G C58G | 7.22e-05 ± 2.1e-05 | – | 4.95e-05 ± 1.8e-05 | –
A15G G35U C50A C71A | < 1e-05 | – | – | –
C16G A33C U57A G63U G66U C67G | < 1e-05 | – | – | –
G13C U46A C67G | < 1e-05 | – | – | –
A14G G29A G32U | 0.000272 ± 0.0001 | 0.000568 ± 0.00014 | – | –
G13A A39U U55C | 4.33e-05 ± 1.4e-05 | 0.000128 ± 2.9e-05 | – | –
A14U G29A U49A U54G A64U | < 1e-05 | < 1e-05 | – | –
G13U G41U C67U | < 1e-05 | < 1e-05 | – | < 1e-05
A15C G35C C68A | < 1e-05 | – | – | –
A15C C67G | 3.9e-05 ± 1.4e-05 | 8.12e-05 ± 1.4e-05 | – | 0.000114 ± 1.8e-05
A15U C16A A52U A53C | < 1e-05 | < 1e-05 | – | –
A15G G60C G63U | < 1e-05 | < 1e-05 | < 1e-05 | –
A15C A33C A36C | < 1e-05 | – | – | –
G13A C34A C67U C70G | < 1e-05 | < 1e-05 | – | –

Variant | self-cleavage kobs at 640 uM GlcN6P (glucosamine-6-phosphate [1]) [s⁻¹] | self-cleavage kobs at 2500 uM GlcN6P (glucosamine-6-phosphate [2]) [s⁻¹] | self-cleavage kobs at 160 uM GlcN6P (glucosamine-6-phosphate [3]) [s⁻¹] | self-cleavage kobs at 10000 uM GlcN6P (glucosamine-6-phosphate [4]) [s⁻¹]
A14C C68G | 4.49e-05 ± 1.5e-05 | – | – | 2.58e-05 ± 8.4e-06
A15G C16A G38C G41A C67A | < 1e-05 | – | – | < 1e-05
A14U U46A | 9.67e-05 ± 1.3e-05 | 0.000343 ± 3.4e-05 | 2.43e-05 ± 9.4e-06 | 0.000323 ± 3.5e-05
C16A G51U C67G | 0.000109 ± 4.2e-05 | – | – | –
A14U A36G G40A G41A U54A U57A C71U | < 1e-05 | – | – | –
G13C A52G C70G | 0.000164 ± 5.2e-05 | 7.21e-05 ± 3e-05 | 0.000297 ± 0.00012 | –
A14G A33U C34G | < 1e-05 | – | – | –
A15U U57C A64U | < 1e-05 | – | – | –
G13U U56G C70G | 6.47e-05 ± 3.1e-05 | 4.09e-05 ± 1.9e-05 | – | –
A14G U30C G63U | < 1e-05 | – | < 1e-05 | < 1e-05
A14C G51C C61U | < 1e-05 | < 1e-05 | – | –
A15U G38U G40C A52U C58U C61G | < 1e-05 | – | – | –
C16A A42C C67U | < 1e-05 | < 1e-05 | < 1e-05 | < 1e-05
C16A G44A C58U | < 1e-05 | < 1e-05 | – | < 1e-05
A14U A36C A64U | < 1e-05 | – | < 1e-05 | < 1e-05
A14U C50U G51U | < 1e-05 | < 1e-05 | < 1e-05 | < 1e-05
A15C U31A C61G | < 1e-05 | – | – | –
G13U G32U G51C G59A | < 1e-05 | < 1e-05 | < 1e-05 | –
A15U U65A | 0.000146 ± 2.3e-05 | 0.00021 ± 4.1e-05 | 6.26e-05 ± 2.2e-05 | 0.00039 ± 5.6e-05
